# Laboratory results as given in PubChem BioAssay AID504339 (National Center for Advancing Translational Sciences (NCATS), 2011).
# Screen size: about 390,000 compounds; about 17,000 (4.4%) were called active. The shares of active, inactive and inconclusive entries below differ from those in the screen. Calls follow the shape of the dose curve; as a rule, active = well fitted inhibition curve with a large enough effect; inconclusive = small, poorly fitted or top-dose-only effect; inactive = no such curve, though single readings can be large or run the other way. Potencies of inconclusive entries are doubtful fits and often do not repeat.
# Biological target: Lysine-specific demethylase 4A (Homo sapiens) (UniProt O75164)
# Assay: qHTS Assay for Inhibitors of JMJD2A-Tudor Domain; also: nearly all actives have a fitted effect of over 50% in size
# Conditions: AlphaScreen JMJD2A-Tudor / H3K4me3 peptide binding; activity change, negative = inhibition: at 114 µM (top of the series)
# % is scaled to controls: 0 for no effect and ±100 for the full control effect; potency is read from the fitted curve at half-maximal effect; tags tell the direction and shape of the fitted curve.
# Chain of UniProt O75164 (O75164 whole entry, looked up, the tested form may be a part): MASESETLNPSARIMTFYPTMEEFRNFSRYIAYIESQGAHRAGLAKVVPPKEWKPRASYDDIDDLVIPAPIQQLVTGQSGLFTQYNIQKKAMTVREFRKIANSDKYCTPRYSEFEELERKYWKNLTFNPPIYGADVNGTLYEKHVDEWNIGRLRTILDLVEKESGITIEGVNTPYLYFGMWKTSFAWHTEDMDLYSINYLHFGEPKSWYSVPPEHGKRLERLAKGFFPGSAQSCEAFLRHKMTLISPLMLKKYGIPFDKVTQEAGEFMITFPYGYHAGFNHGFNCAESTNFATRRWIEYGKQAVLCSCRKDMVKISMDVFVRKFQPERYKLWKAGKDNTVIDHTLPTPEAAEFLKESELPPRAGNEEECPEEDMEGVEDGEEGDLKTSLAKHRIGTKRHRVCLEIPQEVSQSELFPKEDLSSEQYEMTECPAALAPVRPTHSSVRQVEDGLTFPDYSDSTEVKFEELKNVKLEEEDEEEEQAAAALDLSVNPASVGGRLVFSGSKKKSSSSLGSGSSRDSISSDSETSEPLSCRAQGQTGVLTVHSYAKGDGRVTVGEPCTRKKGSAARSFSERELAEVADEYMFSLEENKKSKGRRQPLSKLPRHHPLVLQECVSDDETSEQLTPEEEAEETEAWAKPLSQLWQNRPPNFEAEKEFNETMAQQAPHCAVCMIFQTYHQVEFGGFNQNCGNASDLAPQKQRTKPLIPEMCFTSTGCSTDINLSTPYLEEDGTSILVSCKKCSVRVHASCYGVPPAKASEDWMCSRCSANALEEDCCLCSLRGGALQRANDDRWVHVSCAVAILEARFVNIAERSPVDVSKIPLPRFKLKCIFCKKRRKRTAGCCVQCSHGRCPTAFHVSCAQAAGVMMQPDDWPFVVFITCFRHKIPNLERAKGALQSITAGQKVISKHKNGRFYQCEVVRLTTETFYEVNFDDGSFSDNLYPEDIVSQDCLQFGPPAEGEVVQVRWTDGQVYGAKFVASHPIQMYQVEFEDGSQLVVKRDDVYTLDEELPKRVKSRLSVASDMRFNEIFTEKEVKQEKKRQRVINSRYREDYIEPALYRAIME
Structure (SMILES),Potency,"activity change, negative = inhibition"
O=C(O)c1ccc(N/N=C/C=C/c2ccc([N+](=O)[O-])o2)cc1,active: 44.7 µM,
COc1cccc(N2CCN(S(=O)(=O)c3ccc4[nH]c5c(c4c3)CCCC5)CC2)c1,"inconclusive: 17.8 µM [inhibitor, full curve]",
Cn1ccnc1SC(=O)N1c2ccccc2Sc2ccccc21,active: 20 µM,
CC1=NN(c2ccc(Cl)c(C(=O)O)c2)C(=O)/C1=C/c1ccc(-c2ccccc2[N+](=O)[O-])o1,"inconclusive: 35.5 µM [inhibitor, full curve]",
Cc1cc(NO)nc(-c2ccc(Br)cc2)n1,active: 20 µM,
Cc1cc(/C=N/NC(N)=S)c(O)c(/C=N/NC(N)=S)c1,active: 12.6 µM,
Cc1ccc(C(=O)CSc2nnc(-c3cccnc3)n2N)cc1,active: 50.1 µM,
CS(=O)(=O)N1CCN(C(=O)COc2ccc3ccccc3c2)CC1,"inconclusive: 39.8 µM [inhibitor, single point]",
COC(=O)Cc1cc(=O)[nH]c(/N=C(\N)Nc2ccccc2)n1,"inconclusive: 31.6 µM [inhibitor, single point]",
N#Cc1nc(COc2ccccc2F)oc1NCCc1ccccc1,"inconclusive: 50.1 µM [inhibitor, partial curve]",
COc1ccc(OC)c(-n2cnc3cc(C(=O)NC4CCCCCC4)ccc32)c1,"inconclusive: 56.2 µM [inhibitor, partial curve]",
CN1CCN(Cc2c(O)ccc3c2oc(=O)c2ccccc23)CC1,"inconclusive: 89.1 µM [inhibitor, single point]",
N#CC1=C(N)N=C(SCc2cccc3ccccc23)C(C(N)=O)C12CCCCC2 (stereo not given),active: 56.2 µM,
Cc1cc2oc(C(=O)NCc3ccc4c(c3)OCO4)c(C)c2cc1C,"inconclusive: 70.8 µM [inhibitor, partial curve]",
COc1ccc(N2CCN(CC(=O)c3ccc(O)c(C)c3O)CC2)cc1,"inconclusive: 50.1 µM [inhibitor, partial curve, poor fit]",
O=C(/C=C/c1cccnc1)c1ccc([N+](=O)[O-])cc1,"inconclusive: 44.7 µM [inhibitor, partial curve]",
COCCn1c(COc2cccc(OC)c2)nnc1SCC(=O)NC1CCCCC1,"inconclusive: 0.794 µM [inhibitor, full curve]",
O=C(COC(=O)Cc1ccc(F)cc1)NC1CCS(=O)(=O)C1 (stereo not given),,inactive: -8.22%
CCc1ccc(C2CC(=O)Nc3cc4c(cc32)OCO4)cc1 (stereo not given),,inactive: -21.6%
Cc1cc(C)nc(SCC(=O)Nc2ccc(S(=O)(=O)N3CCCCC3)cc2)n1,"inconclusive: 89.1 µM [inhibitor, single point]",
